The list shows a part of the results.
Key:
Test in all cases: glycan array binding signal (z-score within array); higher = stronger binding
Conditions in all cases: glycan notation: IUPAC condensed, linker removed
[1] = target: Gal(b1-3)GlcNAc(b1-2)Man(a1-3)[Gal(b1-3)GlcNAc(b1-2)Man(a1-6)]Man(b1-4)GlcNAc(b1-4)GlcNAc
Method in brief: (§1)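 Glycan array data came from 3228 arrays in the Consortium for Functional Glycomics database, and only arrays with an available protein sequence were kept. Glycan names were put into IUPAC-condensed notation, and columns mapping to the same glycan were averaged. The binding signal is a within-array Z-score, averaged across arrays of one protein sequence run at different concentrations or buffers and across linkers. A negative Z-score can be read as non-binding.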

[2] = target: Gal(b1-3)GlcNAc(b1-2)Man(a1-3)[Gal(b1-3)GlcNAc(b1-2)Man(a1-6)]Man(b1-4)GlcNAc(b1-4)[Fuc(a1-6)]GlcNAc
Method in brief: as §1

[3] = target: Gal(b1-3)GlcNAc(b1-2)Man(a1-3)[GlcNAc(b1-4)][Gal(b1-3)GlcNAc(b1-2)Man(a1-6)]Man(b1-4)GlcNAc(b1-4)GlcNAc
Method in brief: as §1

[4] = target: Gal(b1-3)GlcNAc(b1-2)[Gal(b1-3)GlcNAc(b1-6)]Man(a1-6)[Gal(b1-3)GlcNAc(b1-2)Man(a1-3)]Man(b1-4)GlcNAc(b1-4)GlcNAc
Method in brief: as §1

[5] = target: Gal(b1-3)GlcNAc(b1-3)Gal(b1-3)GlcNAc
Method in brief: as §1

[6] = target: Gal(b1-3)GlcNAc(b1-3)Gal(b1-4)Glc
Method in brief: as §1

[7] = target: Gal(b1-3)GlcNAc(b1-3)Gal(b1-4)GlcNAc
Method in brief: as §1

[8] = target: Gal(b1-3)GlcNAc(b1-3)Gal(b1-4)GlcNAc(b1-2)Man(a1-3)[Gal(b1-3)GlcNAc(b1-3)Gal(b1-4)GlcNAc(b1-2)Man(a1-6)]Man(b1-4)GlcNAc(b1-4)GlcNAc
Method in brief: as §1

[9] = target: Gal(b1-3)GlcNAc(b1-3)Gal(b1-4)GlcNAc(b1-2)[Gal(b1-3)GlcNAc(b1-3)Gal(b1-4)GlcNAc(b1-6)]Man(a1-6)[Gal(b1-3)GlcNAc(b1-3)Gal(b1-4)GlcNAc(b1-2)Man(a1-3)]Man(b1-4)GlcNAc(b1-4)[Fuc(a1-6)]GlcNAc
Method in brief: as §1

[10] = target: Gal(b1-3)GlcNAc(b1-3)Gal(b1-4)GlcNAc(b1-3)Gal(b1-4)GlcNAc(b1-2)[Gal(b1-3)GlcNAc(b1-3)Gal(b1-4)GlcNAc(b1-3)Gal(b1-4)GlcNAc(b1-6)]Man(a1-6)[Gal(b1-3)GlcNAc(b1-3)Gal(b1-4)GlcNAc(b1-3)Gal(b1-4)GlcNAc(b1-2)Man(a1-3)]Man(b1-4)GlcNAc(b1-4)[Fuc(a1-6)]GlcNAc
Method in brief: as §1

[11] = target: Gal(b1-3)GlcNAc(b1-3)Gal(b1-4)GlcNAc(b1-6)[Gal(b1-3)GlcNAc(b1-3)]Gal(b1-4)Glc
Method in brief: as §1

[12] = target: Gal(b1-3)GlcNAc(b1-3)Gal(b1-4)[Fuc(a1-3)]GlcNAc
Method in brief: as §1

[13] = target: Gal(b1-3)GlcNAc(b1-3)Gal(b1-4)[Fuc(a1-3)]GlcNAc(b1-6)[Gal(b1-3)GlcNAc(b1-3)]Gal(b1-4)Glc
Method in brief: as §1

[14] = target: Gal(b1-3)GlcNAc(b1-3)GalNAc
Method in brief: as §1

[15] = target: Gal(b1-3)GlcNAc(b1-6)Gal(b1-4)GlcNAc
Method in brief: as §1

[16] = target: Gal(b1-3)GlcNAc(b1-6)GalNAc
Method in brief: as §1

[17] = target: Gal(b1-3)GlcNAc(b1-6)[Gal(b1-3)]GalNAc
Method in brief: as §1

[18] = target: Gal(b1-3)GlcNAc6S
Method in brief: as §1

[19] = target: Gal(b1-3)[Fuc(a1-4)]GlcNAc
Method in brief: as §1

[20] = target: Gal(b1-3)[Fuc(a1-4)]GlcNAc(b1-2)Man
Method in brief: as §1

[21] = target: Gal(b1-3)[Fuc(a1-4)]GlcNAc(b1-2)Man(a1-3)[Gal(b1-3)[Fuc(a1-4)]GlcNAc(b1-2)Man(a1-6)]Man(b1-4)GlcNAc(b1-4)[Fuc(a1-6)]GlcNAc
Method in brief: as §1

[22] = target: Gal(b1-3)[Fuc(a1-4)]GlcNAc(b1-3)Gal(b1-3)[Fuc(a1-4)]GlcNAc
Method in brief: as §1

[23] = target: Gal(b1-3)[Fuc(a1-4)]GlcNAc(b1-3)Gal(b1-4)[Fuc(a1-3)]GlcNAc
Method in brief: as §1

[24] = target: Gal(b1-3)[Fuc(a1-4)]GlcNAc(b1-6)GalNAc
Method in brief: as §1

[25] = target: Gal(b1-3)[GlcNAc(b1-6)]GalNAc
Method in brief: as §1

[26] = target: Gal(b1-3)[Neu5Ac(a2-6)]GalNAc
Method in brief: as §1

[27] = target: Gal(b1-3)[Neu5Ac(a2-6)]GlcNAc(b1-4)Gal(b1-4)Glc
Method in brief: as §1

[28] = target: Gal(b1-3)[Neu5Ac(b2-6)]GalNAc
Method in brief: as §1

[29] = target: Gal(b1-4)Gal
Method in brief: as §1

[30] = target: Gal(b1-4)GalNAc(a1-3)[Fuc(a1-2)]Gal(b1-4)GlcNAc
Method in brief: as §1

[31] = target: Gal(b1-4)GalNAc(b1-3)[Fuc(a1-2)]Gal(b1-4)GlcNAc
Method in brief: as §1

[32] = target: Gal(b1-4)Glc
Method in brief: as §1

[33] = target: Gal(b1-4)Glc6S
Method in brief: as §1

[34] = target: Gal(b1-4)GlcNAc
Method in brief: as §1

[35] = target: Gal(b1-4)GlcNAc(a1-6)Gal(b1-4)GlcNAc
Method in brief: as §1

[36] = target: Gal(b1-4)GlcNAc(b1-2)Man
Method in brief: as §1

[37] = target: Gal(b1-4)GlcNAc(b1-2)Man(a1-3)Man(b1-4)GlcNAc(b1-4)GlcNAc
Method in brief: as §1

[38] = target: Gal(b1-4)GlcNAc(b1-2)Man(a1-3)[Gal(b1-4)GlcNAc(b1-2)Man(a1-6)]Man(b1-4)GlcNAc(b1-4)GlcNAc
Method in brief: as §1

[39] = target: Gal(b1-4)GlcNAc(b1-2)Man(a1-3)[Gal(b1-4)GlcNAc(b1-2)Man(a1-6)]Man(b1-4)GlcNAc(b1-4)[Fuc(a1-6)]GlcNAc
Method in brief: as §1

[40] = target: Gal(b1-4)GlcNAc(b1-2)Man(a1-3)[Gal(b1-4)GlcNAc(b1-2)Man(a1-6)][Gal(b1-4)GlcNAc(b1-4)]Man(b1-4)GlcNAc(b1-4)[Fuc(a1-6)]GlcNAc
Method in brief: as §1

[41] = target: Gal(b1-4)GlcNAc(b1-2)Man(a1-3)[Gal(b1-4)GlcNAc(b1-2)Man(a1-6)][GlcNAc(b1-4)]Man(b1-4)GlcNAc(b1-4)[Fuc(a1-6)]GlcNAc
Method in brief: as §1

[42] = target: Gal(b1-4)GlcNAc(b1-2)Man(a1-3)[GlcNAc(b1-2)Man(a1-6)]Man(b1-4)GlcNAc(b1-4)GlcNAc
Method in brief: as §1

[43] = target: Gal(b1-4)GlcNAc(b1-2)Man(a1-3)[GlcNAc(b1-4)][Gal(b1-4)GlcNAc(b1-2)Man(a1-6)]Man(b1-4)GlcNAc(b1-4)GlcNAc
Method in brief: as §1

[44] = target: Gal(b1-4)GlcNAc(b1-2)Man(a1-3)[Man(a1-6)]Man(b1-4)GlcNAc(b1-4)GlcNAc
Method in brief: as §1

[45] = target: Gal(b1-4)GlcNAc(b1-2)Man(a1-6)Man(b1-4)GlcNAc(b1-4)GlcNAc
Method in brief: as §1

B1: CAA (Caragana arborescens) (protein)
chain: VAVEFDTFDNPDWDPRTKHIGIDVNSIRSNKTTQWGFWNRQVADVDISYEASSKTLNVSLYYPGESYIVTDVVDLKDILPEWVRIGF
[1]
  glycan array binding signal (z-score): 6.61
[2]
  glycan array binding signal (z-score): 5.29
[3]
  glycan array binding signal (z-score): 1.57
[4]
  glycan array binding signal (z-score): 5.63
[5]
  glycan array binding signal (z-score): -0.24
[6]
  glycan array binding signal (z-score): -0.239
[7]
  glycan array binding signal (z-score): -0.246
[8]
  glycan array binding signal (z-score): -0.228
[9]
  glycan array binding signal (z-score): -0.229
[10]
  glycan array binding signal (z-score): -0.219
[11]
  glycan array binding signal (z-score): -0.241
[12]
  glycan array binding signal (z-score): -0.238
[13]
  glycan array binding signal (z-score): -0.244
[14]
  glycan array binding signal (z-score): -0.247
[15]
  glycan array binding signal (z-score): -0.252
[16]
  glycan array binding signal (z-score): -0.248
[17]
  glycan array binding signal (z-score): -0.235
[18]
  glycan array binding signal (z-score): -0.249
[19]
  glycan array binding signal (z-score): -0.24
[20]
  glycan array binding signal (z-score): -0.248
[21]
  glycan array binding signal (z-score): 1.61
[22]
  glycan array binding signal (z-score): -0.239
[23]
  glycan array binding signal (z-score): -0.242
[24]
  glycan array binding signal (z-score): -0.247
[25]
  glycan array binding signal (z-score): -0.242
[26]
  glycan array binding signal (z-score): -0.241
[27]
  glycan array binding signal (z-score): -0.252
[28]
  glycan array binding signal (z-score): -0.241
[29]
  glycan array binding signal (z-score): -0.24
[30]
  glycan array binding signal (z-score): -0.245
[31]
  glycan array binding signal (z-score): -0.227
[32]
  glycan array binding signal (z-score): -0.246
[33]
  glycan array binding signal (z-score): -0.231
[34]
  glycan array binding signal (z-score): -0.242
[35]
  glycan array binding signal (z-score): -0.241
[36]
  glycan array binding signal (z-score): -0.253
[37]
  glycan array binding signal (z-score): -0.223
[38]
  glycan array binding signal (z-score): 4.25
[39]
  glycan array binding signal (z-score): 2.28
[40]
  glycan array binding signal (z-score): -0.244
[41]
  glycan array binding signal (z-score): -0.244
[42]
  glycan array binding signal (z-score): 3.58
[43]
  glycan array binding signal (z-score): -0.106
[44]
  glycan array binding signal (z-score): 3.48
[45]
  glycan array binding signal (z-score): -0.245
